Measurements reported in the supplement of paper PMC4604168 (melanoma cell lines).
This is one part of the list. Single values are uncertain, as repeats are few or missing.

Columns and labels:
Experiment in all cases: cell count relative to DMSO control; melanoma cells; higher = more viable cells
Settings in all cases: library dose: low library concentration; 72 h; first compound 0.4 µM
MZ2-MEL = tested on: MZ2-MEL
MeWo = tested on: MeWo
RPMI7951 = tested on: RPMI7951
RVH-421 = tested on: RVH-421
SkMel28 = tested on: SkMel28
SkMel2 = tested on: SkMel2
SkMel30 = tested on: SkMel30
UACC62 = tested on: UACC62
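Also: cell number obtained by counting DAPI-stained nuclei in high-throughput microscope images with image analysis software, screen run in 1,536-well plates.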

Structure (SMILES) | cell count (MZ2-MEL) | cell count (MeWo) | cell count (RPMI7951) | cell count (RVH-421) | cell count (SkMel28) | cell count (SkMel2) | cell count (SkMel30) | cell count (UACC62)
Cn1sc(=O)n(Cc2ccccc2)c1=O + CN1CCN(c2ccc3nc(-c4c(N)c5c(F)cccc5[nH]c4=O)[nH]c3c2)CC1 [Dovitinib] (partner dose 0.1 µM) | 109% | 95.8% | 84.2% | 114% | 94.1% | 107% | 97.3% | 93.1%
C[C@@H](N)c1ccc(C(=O)Nc2ccnc3[nH]ccc23)cc1 + CS(=O)(=O)c1ccc(C(=O)Nc2ccc(Cl)c(-c3ccccn3)c2)c(Cl)c1 [vismodegib] (partner dose 1 µM) | 76.9% | 67.1% | 78.3% | 76.6% | 36.4% | 85.7% | 109% | 82.9%
C[C@@H](N)c1ccc(C(=O)Nc2ccnc3[nH]ccc23)cc1 + O=C(O)c1ccc2c(c1)nc(Nc1cccc(Cl)c1)c1ccncc12 [CX4945] (partner dose 0.4 µM) | 68% | 72.7% | 78.4% | 57.8% | 71.7% | 92.3% | 113% | 90.4%
C[C@@H](N)c1ccc(C(=O)Nc2ccnc3[nH]ccc23)cc1 + COCC[n+]1c2c(n(Cc3cnccn3)c1C)C(=O)c1ccccc1C2=O [YM155] (partner dose 0.0004 µM) | 30.1% | 74.7% | 75% | 80.4% | 78.3% | 88.7% | 99.4% | 84.6%
CCCCCCCCCCCCCCCCCCOP(=O)([O-])OC1CC[N+](C)(C)CC1 [Perifosine] + C=C(c1ccc(C(=O)O)cc1)c1cc2c(cc1C)C(C)(C)CCC2(C)C [Bexarotene] (partner dose 2 µM) | 94.9% | 90% | 57.7% | 93.6% | 74.1% | 94.9% | 93.7% | 78.3%
Cn1sc(=O)n(Cc2ccccc2)c1=O + C[C@@H](Oc1cc(-c2cnn(C3CCNCC3)c2)cnc1N)c1c(Cl)ccc(F)c1Cl [Crizotinib] (partner dose 0.2 µM) | 109% | 101% | 102% | 93.2% | 99.3% | 95.7% | 98.1% | 92.6%
C[C@@H](N)c1ccc(C(=O)Nc2ccnc3[nH]ccc23)cc1 + CC(=O)O[C@@]12CO[C@@H]1C[C@H](O)[C@@]1(C)C(=O)[C@H](O)C3=C(C)[C@@H](OC(=O)[C@H](O)[C@@H](NC(=O)OC(C)(C)C)c4ccccc4)C[C@@](O)([C@@H](OC(=O)c4ccccc4)[C@H]21)C3(C)C [Docetaxel] (partner dose 0.0001 µM) | 47% | 48.7% | 38.6% | 41.3% | 34.2% | 43.6% | 45.6% | 34%
Cn1sc(=O)n(Cc2ccccc2)c1=O + COc1ccc(C2=N[C@@H](c3ccc(Cl)cc3)[C@@H](c3ccc(Cl)cc3)N2C(=O)N2CCNC(=O)C2)c(OC(C)C)c1 [Nutlin-3] (partner dose 0.1 µM) | 109% | 94.8% | 110% | 81.5% | 95.7% | 92.4% | 89.3% | 104%
Cn1sc(=O)n(Cc2ccccc2)c1=O + Cn1c(=O)n(-c2ccc(C(C)(C)C#N)cc2)c2c3cc(-c4cnc5ccccc5c4)ccc3ncc21 [NVP-BEZ235] (partner dose 0.004 µM) | 95.8% | 86.6% | 101% | 79.2% | 88.8% | 91.4% | 90.7% | 103%
CCCCCCCCCCCCCCCCCCOP(=O)([O-])OC1CC[N+](C)(C)CC1 [Perifosine] + Nc1cccc2c1CN(C1CCC(=O)NC1=O)C2=O [lenalidomide] (partner dose 1 µM) | 102% | 93.5% | 90.9% | 84.4% | 93% | 97.7% | 91.1% | 88.5%
Cn1sc(=O)n(Cc2ccccc2)c1=O + CN(c1ncccc1CNc1nc(Nc2ccc3c(c2)CC(=O)N3)ncc1C(F)(F)F)S(C)(=O)=O [PF562271] (partner dose 0.08 µM) | 108% | 107% | 78% | 112% | 105% | 94.2% | 97.7% | 86.6%
Cn1sc(=O)n(Cc2ccccc2)c1=O + CS(=O)(=O)c1ccc(C(=O)Nc2ccc(Cl)c(-c3ccccn3)c2)c(Cl)c1 [vismodegib] (partner dose 1 µM) | 93.5% | 103% | 105% | 124% | 103% | 105% | 87.1% | 111%
Cn1sc(=O)n(Cc2ccccc2)c1=O + C[C@]1(O)C[C@@H](c2nc(-c3ccc4ccc(-c5ccccc5)nc4c3)c3c(N)nccn32)C1 [OSI906] (partner dose 0.4 µM) | 97.8% | 93.3% | 77.2% | 94.7% | 91.4% | 83.1% | 88.6% | 87.2%
CCCCCCCCCCCCCCCCCCOP(=O)([O-])OC1CC[N+](C)(C)CC1 [Perifosine] + Nc1ccn([C@@H]2O[C@H](CO)[C@@H](O)C2(F)F)c(=O)n1 [gemcitabine] (partner dose 0.0004 µM) | 103% | 100% | 52.9% | 95.8% | 87.5% | 101% | 93.5% | 90%
Cn1sc(=O)n(Cc2ccccc2)c1=O + CC(=O)O[C@@]12CO[C@@H]1C[C@H](O)[C@@]1(C)C(=O)[C@H](O)C3=C(C)[C@@H](OC(=O)[C@H](O)[C@@H](NC(=O)OC(C)(C)C)c4ccccc4)C[C@@](O)([C@@H](OC(=O)c4ccccc4)[C@H]21)C3(C)C [Docetaxel] (partner dose 0.0001 µM) | 57.2% | 56.1% | 50% | 80.5% | 58.6% | 43% | 36.2% | 45.1%
Cn1sc(=O)n(Cc2ccccc2)c1=O + COCC[n+]1c2c(n(Cc3cnccn3)c1C)C(=O)c1ccccc1C2=O [YM155] (partner dose 0.0004 µM) | 78.2% | 97% | 97.6% | 99.9% | 97.6% | 96.2% | 97.8% | 105%
CCCCCCCCCCCCCCCCCCOP(=O)([O-])OC1CC[N+](C)(C)CC1 [Perifosine] + COCC[n+]1c2c(n(Cc3cnccn3)c1C)C(=O)c1ccccc1C2=O [YM155] (partner dose 0.0004 µM) | 55.9% | 102% | 57.9% | 90.8% | 101% | 88.6% | 88.1% | 102%
CCCCCCCCCCCCCCCCCCOP(=O)([O-])OC1CC[N+](C)(C)CC1 [Perifosine] + Cc1cn(-c2cc(NC(=O)c3ccc(C)c(Nc4nccc(-c5cccnc5)n4)c3)cc(C(F)(F)F)c2)cn1 [nilotinib] (partner dose 0.2 µM) | 95.4% | 98.6% | 95.8% | 100% | 105% | 91.2% | 88.8% | 118%
CCCCCCCCCCCCCCCCCCOP(=O)([O-])OC1CC[N+](C)(C)CC1 [Perifosine] + CCCS(=O)(=O)Nc1ccc(F)c(C(=O)c2c[nH]c3ncc(Cl)cc23)c1F [PLX4720] (partner dose 0.08 µM) | 98.9% | 118% | 103% | 99% | 92.9% | 114% | 104% | 80.9%
Cn1sc(=O)n(Cc2ccccc2)c1=O + CCCCCCCCc1ccc(CCC(N)(CO)CO)cc1 [fingolimod] (partner dose 2 µM) | 95.3% | 101% | 76.7% | 110% | 101% | 97.9% | 97.1% | 89.8%
CCCCCCCCCCCCCCCCCCOP(=O)([O-])OC1CC[N+](C)(C)CC1 [Perifosine] + Cn1cnc2c(F)c(Nc3ccc(Br)cc3Cl)c(C(=O)NOCCO)cc21 [selumetinib] (partner dose 0.015 µM) | 117% | 105% | 65.9% | 103% | 92.1% | 86.3% | 86.7% | 94.2%
CCCCCCCCCCCCCCCCCCOP(=O)([O-])OC1CC[N+](C)(C)CC1 [Perifosine] + Cn1nnc2c(C(N)=O)ncn2c1=O [temozolomide] (partner dose 2 µM) | 101% | 108% | 88.7% | 86.5% | 77.7% | 107% | 88.8% | 86.3%
CCCCCCCCCCCCCCCCCCOP(=O)([O-])OC1CC[N+](C)(C)CC1 [Perifosine] + CS(=O)(=O)c1ccc(C(=O)Nc2ccc(Cl)c(-c3ccccn3)c2)c(Cl)c1 [vismodegib] (partner dose 1 µM) | 106% | 99.5% | 74.4% | 86.2% | 102% | 90% | 102% | 80.3%
C[C@@H](N)c1ccc(C(=O)Nc2ccnc3[nH]ccc23)cc1 + Cn1sc(=O)n(Cc2ccccc2)c1=O [TDZD-8] (partner dose 0.4 µM) | 69.7% | 81.5% | 88.7% | 53.1% | 101% | 92.5% | 124% | 116%
C[C@@H](N)c1ccc(C(=O)Nc2ccnc3[nH]ccc23)cc1 + Nc1ncn([C@H]2C[C@H](O)[C@@H](CO)O2)c(=O)n1 [decitabine] (partner dose 0.1 µM) | 63.9% | 88.7% | 66.6% | 44% | 57.8% | 100% | 120% | 62.3%
C[C@@H](N)c1ccc(C(=O)Nc2ccnc3[nH]ccc23)cc1 + Nc1ccn([C@@H]2O[C@H](CO)[C@@H](O)C2(F)F)c(=O)n1 [gemcitabine] (partner dose 0.0004 µM) | 69.5% | 65.4% | 93.3% | 65.4% | 66.2% | 106% | 111% | 83.4%
